Measured values as given in the supplement of paper PMC11246515.
± gives the standard deviation of the averaged measurements.

Experiment: total protein half-life in vivo (active degradation + dilution); higher = more stable protein
Settings: growth: N-lim chemostat, doubling time 6 h

## MAQAEVLNLESGAKQVLQETFGYQQFRPGQEEIIDTVLSGRDCLVVMPTGGGKSLCYQIPALLLNGLTVVVSPLISLMKDQVDQLQANGVAAACLNSTQTREQQLEVMTGCRTGQIRLLYIAPERLMLDNFLEHLAHWNPVLLAVDEAHCISQWGHDFRPEYAALGQLRQRFPTLPFMALTATADDTTRQDIVRLLGLNDPLIQISSFDRPNIRYMLMEKFKPLDQLMRYVQEQRGKSGIIYCNSRAKVEDTAARLQSKGISAAAYHAGLENNVRADVQEKFQRDDLQIVVATVAFGMGINKPNVRFVVHFDIPRNIESYYQETGRAGRDGLPAEAMLFYDPADMAWLRRCLEEKPQGQLQDIERHKLNAMGAFAEAQTCRRLVLLNYFGEGRQEPCGNCDICLDPPKQYDGSTDAQIALSTIGRVNQRFGMGYVVEVIRGANNQRIRDYGHDKLKVYGMGRDKSHEHWVSVIRQLIHLGLVTQNIAQHSALQLTEAARPVLRGESSLQLAVPRIVALKPKAMQKSFGGNYDRKLFAKLRKLRKSIADESNVPPYVVFNDATLIEMAEQMPITASEMLSVNGVGMRKLERFGKPFMALIRAHVDGDDEE
E. coli NCM3722 delta-clpP delta-lon delta-hslV
  total protein half-life in vivo: 5.76 ± 0.82 h
E. coli NCM3722 delta-clpP
  total protein half-life in vivo: 4.87 ± 0.2 h
